Assay results from paper PMC5505701, “Somatostatin binds to the human amyloid β peptide and favors the formation of distinct oligomers” (eLife, 2017).

B1: ATP synthase subunit alpha, mitochondrial: human brain protein (protein, UniProt P25705 44-553, looked up)
ATP synthase F(1) complex …: QKTGTAEMSSILEERILGADTSVDLEETGRVLSIGDGIARVHGLRNVQAEEMVEFSSGLKGMSLNLEPDNVGVVVFGNDKLIKEGDIVKRTGAIVDVPVGEELLGRVVDALGNAIDGKGPIGSKTRRRVGLKAPGIIPRISVREPMQTGIKAVDSLVPIGRGQRELIIGDRQTGKTSIAIDTIINQKRFNDGSDEKKKLYCIYVAIGQKRSTVAQLVKRLTDADAMKYTIVVSATASDAAPLQYLAPYSGCSMGEYFRDNGKHALIIYDDLSKQAVAYRQMSLLLRRPPGREAYPGDVFYLHSRLLERAAKMNDAFGGGSLTALPVIETQAGDVSAYIPTNVISITDGQIFLETELFYKGIRPAINVGLSVSRVGSAAQTRAMKQVAGTMKLELAQYREVAAFAQFGSDLDAATQQLLSRGVRLTELLKQGQYSPMAIEEQVAVIYAGVRGYLDKLEPSKITKFENAFLSHVVSQHQALLGTIRADGKISEQSDAKLKEIVTNFLAGFEA
B2: Tryptophanyl-tRNA synthetase, cytoplasmic: human brain protein (protein, UniProt P23381 2-471, looked up)
Tryptophan--tRNA ligase, …: PNSEPASLLELFNSIATQGELVRSLKAGNASKDEIDSAVKMLVSLKMSYKAAAGEDYKADCPPGNPAPTSNHGPDATEAEEDFVDPWTVQTSSAKGIDYDKLIVRFGSSKIDKELINRIERATGQRPHHFLRRGIFFSHRDMNQVLDAYENKKPFYLYTGRGPSSEAMHVGHLIPFIFTKWLQDVFNVPLVIQMTDDEKYLWKDLTLDQAYSYAVENAKDIIACGFDINKTFIFSDLDYMGMSSGFYKNVVKIQKHVTFNQVKGIFGFTDSDCIGKISFPAIQAAPSFSNSFPQIFRDRTDIQCLIPCAIDQDPYFRMTRDVAPRIGYPKPALLHSTFFPALQGAQTKMSASDPNSSIFLTDTAKQIKTKVNKHAFSGGRDTIEEHRQFGGNCDVDVSFMYLTFFLEDDDKLEQIRKDYTSGAMLTGELKKALIEVLQPLIAEHQARRKEVTDEIVKEFMTPRKLSFDFQ
B3: Cofilin-2: human brain protein (protein, UniProt Q9Y281 2-166, looked up)
Cofilin-2: ASGVTVNDEVIKVFNDMKVRKSSTQEEIKKRKKAVLFCLSDDKRQIIVEEAKQILVGDIGDTVEDPYTSFVKLLPLNDCRYALYDATYETKESKKEDLVFIFWAPESAPLKSKMIYASSKDAIKKKFTGIKHEWQVNGLDDIKDRSTLGEKLGGNVVVSLEGKPL
B4: Acetyl-CoA acetyltransferase, mitochondrial: human brain protein (protein, UniProt P24752 34-427, looked up)
Acetyl-CoA acetyltransferase, …: VSKPTLKEVVIVSATRTPIGSFLGSLSLLPATKLGSIAIQGAIEKAGIPKEEVKEAYMGNVLQGGEGQAPTRQAVLGAGLPISTPCTTINKVCASGMKAIMMASQSLMCGHQDVMVAGGMESMSNVPYVMNRGSTPYGGVKLEDLIVKDGLTDVYNKIHMGSCAENTAKKLNIARNEQDAYAINSYTRSKAAWEAGKFGNEVIPVTVTVKGQPDVVVKEDEEYKRVDFSKVPKLKTVFQKENGTVTAANASTLNDGAAALVLMTADAAKRLNVTPLARIVAFADAAVEPIDFPIAPVYAASMVLKDVGLKKEDIAMWEVNEAFSLVVLANIKMLEIDPQKVNINGGAVSLGHPIGMSGARIVGHLTHALKQGEYGLASICNGGGGASAMLIQKL
B5: Endophilin-A1: human brain protein (protein, UniProt Q99962 1-352, looked up)
Endophilin-A1: MSVAGLKKQFHKATQKVSEKVGGAEGTKLDDDFKEMERKVDVTSRAVMEIMTKTIEYLQPNPASRAKLSMINTMSKIRGQEKGPGYPQAEALLAEAMLKFGRELGDDCNFGPALGEVGEAMRELSEVKDSLDIEVKQNFIDPLQNLHDKDLREIQHHLKKLEGRRLDFDYKKKRQGKIPDEELRQALEKFDESKEIAESSMFNLLEMDIEQVSQLSALVQAQLEYHKQAVQILQQVTVRLEERIRQASSQPRREYQPKPRMSLEFPTGDSTQPNGGLSHTGTPKPSGVQMDQPCCRALYDFEPENEGELGFKEGDIITLTNQIDENWYEGMLHGHSGFFPINYVEILVALPH
B6: Quinone oxidoreductase: human brain protein (protein, UniProt Q08257 2-329, looked up)
Quinone oxidoreductase: ATGQKLMRAVRVFEFGGPEVLKLRSDIAVPIPKDHQVLIKVHACGVNPVETYIRSGTYSRKPLLPYTPGSDVAGVIEAVGDNASAFKKGDRVFTSSTISGGYAEYALAADHTVYKLPEKLDFKQGAAIGIPYFTAYRALIHSACVKAGESVLVHGASGGVGLAACQIARAYGLKILGTAGTEEGQKIVLQNGAHEVFNHREVNYIDKIKKYVGEKGIDIIIEMLANVNLSKDLSLLSHGGRVIVVGSRGTIEINPRDTMAKESSIIGVTLFSSTKEEFQQYAAALQAGMEIGWLKPVIGSQYPLEKVAEAHENIIHGSGATGKMILLL
B7: Peroxiredoxin-5, mitochondrial: human brain protein (protein, UniProt P30044 53-214, looked up)
Peroxiredoxin-5, mitochondrial: MAPIKVGDAIPAVEVFEGEPGNKVNLAELFKGKKGVLFGVPGAFTPGCSKTHLPGFVEQAEALKAKGVQVVACLSVNDAFVTGEWGRAHKAEGKVRLLADPTGAFGKETDLLLDDSLVSIFGNRRLKRFSMVVQDGIVKALNVEPDGTGLTCSLAPNIISQL

Each molecule was assayed on oligomeric Aβ1-42 (biotin-oAβ1-42 bait). Details: enrichment relative to biotin-only saturated negative control matrix; human frontal lobe digitonin extract; TMT, three biological replicates; pH 8.0, 4°C overnight.

Question: For B1, which “Experiment I B-oAβ1-42/B Ratio” value is on record?
Answer: The value was 5.17.

Question: For B2, which “Experiment I B-oAβ1-42/B Ratio” value is on record?
Answer: The value was 5.17.

Question: For B3, which “Experiment I B-oAβ1-42/B Ratio” value is on record?
Answer: Its value is 4.79.

Question: For B4, which “Experiment I B-oAβ1-42/B Ratio” value is on record?
Answer: Its value is 4.81.

Question: For B5, which “Experiment I B-oAβ1-42/B Ratio” value is on record?
Answer: The value was 5.03.

Question: For B6, which “Experiment I B-oAβ1-42/B Ratio” value is on record?
Answer: Its value is 5.18.

Question: B7 was tested. Which “Experiment I B-oAβ1-42/B Ratio” value did it give?
Answer: The value was 12.23.
